# The list shows a part of the results.
# Legend:
# Assay in all cases: glycan array binding signal (z-score within array); higher = stronger binding
# Conditions in all cases: glycan notation: IUPAC condensed, linker removed; mutation: R85A
# Fuc(a1-2)Gal = target: Fuc(a1-2)Gal
# Method in brief: (§1)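 The binding signal is a Z-score computed within each array. Data were drawn from 3228 arrays in the Consortium for Functional Glycomics database, restricted to those with a known protein sequence. Scores were averaged over arrays of the same protein sequence at different concentrations or buffers, and over linkers, and negative values can be taken as non-binding.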
# Fuc(a1-2)Gal(b1-3)GalNAc = target: Fuc(a1-2)Gal(b1-3)GalNAc
# Method in brief: as §1
# [1] = target: Fuc(a1-2)Gal(b1-3)GalNAc(a1-3)[Fuc(a1-2)]Gal(b1-4)Glc
# Method in brief: as §1
# [2] = target: Fuc(a1-2)Gal(b1-3)GalNAc(a1-3)[Fuc(a1-2)]Gal(b1-4)GlcNAc
# Method in brief: as §1
# [3] = target: Fuc(a1-2)Gal(b1-3)GalNAc(b1-3)Gal
# Method in brief: as §1
# [4] = target: Fuc(a1-2)Gal(b1-3)GalNAc(b1-3)Gal(a1-4)Gal(b1-4)Glc
# Method in brief: as §1
# [5] = target: Fuc(a1-2)Gal(b1-3)GalNAc(b1-4)[Neu5Ac(a2-3)]Gal(b1-4)Glc
# Method in brief: as §1
# Fuc(a1-2)Gal(b1-3)GlcNAc = target: Fuc(a1-2)Gal(b1-3)GlcNAc
# Method in brief: as §1
# [6] = target: Fuc(a1-2)Gal(b1-3)GlcNAc(b1-2)Man(a1-3)[Fuc(a1-2)Gal(b1-3)GlcNAc(b1-2)Man(a1-6)]Man(b1-4)GlcNAc(b1-4)GlcNAc
# Method in brief: as §1
# [7] = target: Fuc(a1-2)Gal(b1-3)GlcNAc(b1-3)Gal(b1-4)Glc
# Method in brief: as §1
# [8] = target: Fuc(a1-2)Gal(b1-3)GlcNAc(b1-3)[Fuc(a1-3)[Gal(b1-4)]GlcNAc(b1-6)]Gal(b1-4)Glc
# Method in brief: as §1
# [9] = target: Fuc(a1-2)Gal(b1-3)[Fuc(a1-4)]GlcNAc
# Method in brief: as §1
# [10] = target: Fuc(a1-2)Gal(b1-3)[Fuc(a1-4)]GlcNAc(b1-2)Man(a1-3)[Fuc(a1-2)Gal(b1-3)[Fuc(a1-4)]GlcNAc(b1-2)Man(a1-6)]Man(b1-4)GlcNAc(b1-4)GlcNAc
# Method in brief: as §1
# [11] = target: Fuc(a1-2)Gal(b1-3)[Fuc(a1-4)]GlcNAc(b1-3)[Fuc(a1-3)[Gal(b1-4)]GlcNAc(b1-6)]Gal(b1-4)Glc
# Method in brief: as §1
# [12] = target: Fuc(a1-2)Gal(b1-3)[Fuc(a1-4)]GlcNAc(b1-3)[Gal(b1-4)GlcNAc(b1-6)]Gal(b1-4)Glc
# Method in brief: as §1
# Fuc(a1-2)Gal(b1-4)Glc = target: Fuc(a1-2)Gal(b1-4)Glc
# Method in brief: as §1
# Fuc(a1-2)Gal(b1-4)Glc6S = target: Fuc(a1-2)Gal(b1-4)Glc6S
# Method in brief: as §1
# Fuc(a1-2)Gal(b1-4)GlcNAc = target: Fuc(a1-2)Gal(b1-4)GlcNAc
# Method in brief: as §1
# [13] = target: Fuc(a1-2)Gal(b1-4)GlcNAc(b1-2)Man(a1-3)[Fuc(a1-2)Gal(b1-4)GlcNAc(b1-2)Man(a1-6)]Man(b1-4)GlcNAc(b1-4)GlcNAc
# Method in brief: as §1
# [14] = target: Fuc(a1-2)Gal(b1-4)GlcNAc(b1-3)Gal(b1-4)GlcNAc
# Method in brief: as §1
# [15] = target: Fuc(a1-2)Gal(b1-4)GlcNAc(b1-3)Gal(b1-4)GlcNAc(b1-3)Gal(b1-4)GlcNAc
# Method in brief: as §1
# [16] = target: Fuc(a1-2)Gal(b1-4)GlcNAc(b1-3)GalNAc
# Method in brief: as §1
# [17] = target: Fuc(a1-2)Gal(b1-4)GlcNAc6S
# Method in brief: as §1
# [18] = target: Fuc(a1-2)Gal(b1-4)[Fuc(a1-3)]GlcNAc
# Method in brief: as §1
# [19] = target: Fuc(a1-2)Gal(b1-4)[Fuc(a1-3)]GlcNAc(b1-2)Man(a1-3)[Fuc(a1-2)Gal(b1-4)[Fuc(a1-3)]GlcNAc(b1-2)Man(a1-6)]Man(b1-4)GlcNAc(b1-4)GlcNAc
# Method in brief: as §1
# [20] = target: Fuc(a1-2)Gal(b1-4)[Fuc(a1-3)]GlcNAc(b1-3)Gal(b1-4)[Fuc(a1-3)]GlcNAc
# Method in brief: as §1
# [21] = target: Fuc(a1-2)Gal(b1-4)[Fuc(a1-3)]GlcNAc(b1-3)Gal(b1-4)[Fuc(a1-3)]GlcNAc(b1-3)Gal(b1-4)[Fuc(a1-3)]GlcNAc
# Method in brief: as §1
# Fuc(a1-2)Gal6S(b1-4)Glc = target: Fuc(a1-2)Gal6S(b1-4)Glc
# Method in brief: as §1
# [22] = target: Fuc(a1-2)Gal6S(b1-4)Glc6S
# Method in brief: as §1
# [23] = target: Fuc(a1-2)Gal6S(b1-4)GlcNAc
# Method in brief: as §1
# Fuc(a1-2)[Gal(a1-3)]Gal = target: Fuc(a1-2)[Gal(a1-3)]Gal
# Method in brief: as §1
# [24] = target: Fuc(a1-2)[Gal(a1-3)]Gal(b1-3)GlcNAc
# Method in brief: as §1
# [25] = target: Fuc(a1-2)[Gal(a1-3)]Gal(b1-3)GlcNAc(b1-2)Man(a1-3)[Fuc(a1-2)[Gal(a1-3)]Gal(b1-3)GlcNAc(b1-2)Man(a1-6)]Man(b1-4)GlcNAc(b1-4)GlcNAc
# Method in brief: as §1
# [26] = target: Fuc(a1-2)[Gal(a1-3)]Gal(b1-4)Glc
# Method in brief: as §1
# [27] = target: Fuc(a1-2)[Gal(a1-3)]Gal(b1-4)GlcNAc
# Method in brief: as §1
# [28] = target: Fuc(a1-2)[Gal(a1-3)]Gal(b1-4)GlcNAc(b1-2)Man(a1-3)[Fuc(a1-2)[Gal(a1-3)]Gal(b1-4)GlcNAc(b1-2)Man(a1-6)]Man(b1-4)GlcNAc(b1-4)GlcNAc
# Method in brief: as §1
# [29] = target: Fuc(a1-2)[Gal(a1-3)]Gal(b1-4)[Fuc(a1-3)]GlcNAc
# Method in brief: as §1
# [30] = target: Fuc(a1-2)[Gal(a1-4)]Gal(b1-4)GlcNAc
# Method in brief: as §1
# [31] = target: Fuc(a1-2)[GalNAc(a1-3)]Gal
# Method in brief: as §1
# [32] = target: Fuc(a1-2)[GalNAc(a1-3)]Gal(b1-3)GalNAc(a1-3)[Fuc(a1-2)]Gal(b1-4)GlcNAc
# Method in brief: as §1
# [33] = target: Fuc(a1-2)[GalNAc(a1-3)]Gal(b1-3)GlcNAc
# Method in brief: as §1
# [34] = target: Fuc(a1-2)[GalNAc(a1-3)]Gal(b1-3)GlcNAc(b1-2)Man(a1-3)[Fuc(a1-2)[GalNAc(a1-3)]Gal(b1-3)GlcNAc(b1-2)Man(a1-6)]Man(b1-4)GlcNAc(b1-4)GlcNAc
# Method in brief: as §1
# [35] = target: Fuc(a1-2)[GalNAc(a1-3)]Gal(b1-4)Glc
# Method in brief: as §1
# [36] = target: Fuc(a1-2)[GalNAc(a1-3)]Gal(b1-4)GlcNAc
# Method in brief: as §1
# [37] = target: Fuc(a1-2)[GalNAc(a1-3)]Gal(b1-4)GlcNAc(b1-2)Man(a1-3)[Fuc(a1-2)[GalNAc(a1-3)]Gal(b1-4)GlcNAc(b1-2)Man(a1-6)]Man(b1-4)GlcNAc(b1-4)GlcNAc
# Method in brief: as §1
# [38] = target: Fuc(a1-2)[GalNAc(a1-3)]Gal(b1-4)GlcNAc(b1-3)Gal(b1-4)GlcNAc
# Method in brief: as §1
# [39] = target: Fuc(a1-2)[GalNAc(a1-3)]Gal(b1-4)GlcNAc(b1-3)Gal(b1-4)GlcNAc(b1-3)Gal(b1-4)GlcNAc
# Method in brief: as §1
# [40] = target: Fuc(a1-2)[GalNAc(a1-3)]Gal(b1-4)[Fuc(a1-3)]GlcNAc
# Method in brief: as §1
# [41] = target: Fuc(a1-2)[GalNAc(a1-4)]Gal(b1-4)GlcNAc
# Method in brief: as §1
# [42] = target: Fuc(a1-2)[GalNAc(b1-3)]Gal
# Method in brief: as §1
# Fuc(a1-3)GlcNAc = target: Fuc(a1-3)GlcNAc
# Method in brief: as §1
# [43] = target: Fuc(a1-3)[Gal(b1-4)]Glc6S
# Method in brief: as §1
# [44] = target: Fuc(a1-3)[Gal(b1-4)]GlcNAc
# Method in brief: as §1
# [45] = target: Fuc(a1-3)[Gal(b1-4)]GlcNAc(b1-2)Man(a1-3)[Fuc(a1-3)[Gal(b1-4)]GlcNAc(b1-2)Man(a1-6)]Man(b1-4)GlcNAc(b1-4)GlcNAc
# Method in brief: as §1
# [46] = target: Fuc(a1-3)[Gal(b1-4)]GlcNAc(b1-3)Gal(b1-3)[Fuc(a1-4)]GlcNAc
# Method in brief: as §1
# [47] = target: Fuc(a1-3)[Gal(b1-4)]GlcNAc(b1-3)GalNAc
# Method in brief: as §1
# [48] = target: Fuc(a1-3)[Gal(b1-4)]GlcNAc(b1-4)Gal(b1-4)[Fuc(a1-3)]GlcNAc
# Method in brief: as §1
# [49] = target: Fuc(a1-3)[Gal(b1-4)]GlcNAc(b1-4)Gal(b1-4)[Fuc(a1-3)]GlcNAc(b1-4)Gal(b1-4)[Fuc(a1-3)]GlcNAc
# Method in brief: as §1
# [50] = target: Fuc(a1-3)[Gal(b1-4)]GlcNAc(b1-6)[Gal(b1-3)GlcNAc(b1-3)]Gal(b1-4)Glc
# Method in brief: as §1
# [51] = target: Fuc(a1-3)[Gal(b1-4)]GlcNAc6S
# Method in brief: as §1
binder,measurement,setting,value
"rAAL (Agrocybe aegerita), Q6WY08 (protein) MQGVNIYNISAGTSVDLAAPVTTGDIVTFFSSALNLNAGAGNPNNTTLNLFAENGAYLLHIAFRLQENVIIFNSRQPDGPWLVEQAVSDVANQFAGIDGKAMVTVFDHGDKYQVVINEKTVIQYTKQISGLTLSLSYNATEETSIFSTVVEAVTYTGLALEHHHHHH",glycan array binding signal (z-score),Fuc(a1-2)Gal,-0.121
same,glycan array binding signal (z-score),Fuc(a1-2)Gal(b1-3)GalNAc,-0.127
same,glycan array binding signal (z-score),[1],-0.131
same,glycan array binding signal (z-score),[2],-0.138
same,glycan array binding signal (z-score),[3],-0.127
same,glycan array binding signal (z-score),[4],-0.127
same,glycan array binding signal (z-score),[5],-0.122
same,glycan array binding signal (z-score),Fuc(a1-2)Gal(b1-3)GlcNAc,-0.124
same,glycan array binding signal (z-score),[6],-0.123
same,glycan array binding signal (z-score),[7],-0.13
same,glycan array binding signal (z-score),[8],-0.115
same,glycan array binding signal (z-score),[9],-0.136
same,glycan array binding signal (z-score),[10],-0.109
same,glycan array binding signal (z-score),[11],-0.13
same,glycan array binding signal (z-score),[12],-0.141
same,glycan array binding signal (z-score),Fuc(a1-2)Gal(b1-4)Glc,-0.134
same,glycan array binding signal (z-score),Fuc(a1-2)Gal(b1-4)Glc6S,-0.077
same,glycan array binding signal (z-score),Fuc(a1-2)Gal(b1-4)GlcNAc,-0.125
same,glycan array binding signal (z-score),[13],-0.124
same,glycan array binding signal (z-score),[14],-0.119
same,glycan array binding signal (z-score),[15],-0.114
same,glycan array binding signal (z-score),[16],-0.106
same,glycan array binding signal (z-score),[17],-0.133
same,glycan array binding signal (z-score),[18],-0.126
same,glycan array binding signal (z-score),[19],-0.138
same,glycan array binding signal (z-score),[20],-0.123
same,glycan array binding signal (z-score),[21],-0.118
same,glycan array binding signal (z-score),Fuc(a1-2)Gal6S(b1-4)Glc,-0.131
same,glycan array binding signal (z-score),[22],-0.137
same,glycan array binding signal (z-score),[23],-0.121
same,glycan array binding signal (z-score),Fuc(a1-2)[Gal(a1-3)]Gal,-0.137
same,glycan array binding signal (z-score),[24],-0.118
same,glycan array binding signal (z-score),[25],-0.093
same,glycan array binding signal (z-score),[26],-0.124
same,glycan array binding signal (z-score),[27],-0.127
same,glycan array binding signal (z-score),[28],-0.11
same,glycan array binding signal (z-score),[29],-0.122
same,glycan array binding signal (z-score),[30],-0.119
same,glycan array binding signal (z-score),[31],-0.126
same,glycan array binding signal (z-score),[32],-0.133
same,glycan array binding signal (z-score),[33],-0.127
same,glycan array binding signal (z-score),[34],-0.136
same,glycan array binding signal (z-score),[35],-0.122
same,glycan array binding signal (z-score),[36],-0.125
same,glycan array binding signal (z-score),[37],-0.112
same,glycan array binding signal (z-score),[38],-0.12
same,glycan array binding signal (z-score),[39],-0.122
same,glycan array binding signal (z-score),[40],-0.14
same,glycan array binding signal (z-score),[41],-0.138
same,glycan array binding signal (z-score),[42],-0.136
same,glycan array binding signal (z-score),Fuc(a1-3)GlcNAc,-0.134
same,glycan array binding signal (z-score),[43],-0.13
same,glycan array binding signal (z-score),[44],-0.142
same,glycan array binding signal (z-score),[45],-0.138
same,glycan array binding signal (z-score),[46],-0.132
same,glycan array binding signal (z-score),[47],-0.1
same,glycan array binding signal (z-score),[48],-0.114
same,glycan array binding signal (z-score),[49],-0.134
same,glycan array binding signal (z-score),[50],-0.112
same,glycan array binding signal (z-score),[51],-0.137

# From the supplement of paper PMC8728848
